B1: CPEB3 Ribozyme (parent)
chain: UAACAGGGGGCCACAGCAGAAGCGUUCACGUCGCAGCCCCUGUCAGAUUCUGGUGAAUCUGCGAAUUCUGCUGUAUAUCUC

The source gives no read counts; variants with many changes may rest on few reads.

In this data set the parent is B1. Put plainly: self-cleavage, relative activity (ratio to wild type); higher = more cleavage; in vitro, sequencing. In short, it runs like this:
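For each CPEB3 ribozyme variant, relative activity is its cleaved/total read fraction divided by the unmutated ribozyme's. Barcoded error-prone PCR libraries were transcribed by T7 RNA polymerase (5 hours, 37°C) and held in DNase I for 15 min before an EDTA stop, with cleavage occurring throughout. Template-switching reverse transcription and Illumina sequencing were used to read the RNAs. A 5-read minimum applied, and results are the mean of three batches.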
As to U1A A21G G30C A56G A57G, the self-cleavage turned out to be 0.16.
As to U1A C4A C11U U25C C32A U80A, the self-cleavage was determined as 0.09.
With U1A A18U G46U A75G the figure was 0.08; with U1A A18G A56U, 0.3; with U1A A20C A45G A56G U74C, 0.27.
The same measure for U1A A20U U41C A45U U72A U78C: 0.09; for U1A A3C C4A A13U A20U U67C U69C: 0.27.
As to U1A A2G A28G U41A A45G, the self-cleavage turned out to be 0.56.
In the case of U1A A13G U41A, the self-cleavage came out at 0.1.
The same measure for U1A A18G A45G: 0.48.
Regarding U1A A15G G19U U31G U43C U58C U67A, the self-cleavage amounted to 0.11.
The same measure for U1A A3C A15U A21G A28G A35G: 0.81.
In the case of U1A A5G A13U C14U U25C A65G U66C, the self-cleavage was 0.08.
With U1A A5U A15U A18G C32U U54A U58C the figure was 0.17; with U1A A35G A45U U51A, 1.12.
With U1A A35G U72A the figure was 1.18; with U1A A28G C44U U54A, 0.27; with U1A A18G A20U G36A U43C A56G, 0.03.
For the variant U1A A28G A56U U58G, the self-cleavage is 0.09.
As to U1A A5U A15G A20G U25C A35G A64G, the self-cleavage stood at 0.
Consider U1A A28G A75G, for which the self-cleavage was 0.29.
The same measure for U1A A13G A18G A45G A47G: 0.13; for U1A A13U U80C: 1.27; for U1A A13U A15G U78C: 0.81.
As for U1A A13U A21G A65G U74A, the self-cleavage was determined as 0.51.
With U1A A2G A21G A47G A65G U74C the figure was 0.15; with U1A A2C C37U U41G U49C U72C U80C, 0.27.
Regarding U1A A28G A64G, the self-cleavage was found to be 0.47.
With U1A A35G U76C the figure was 1.26; with U1A A2G A28C U43C U78G, 0.25; with U1A A18G U26C U54C U60A, 0.17.
As for U1A A3C A18G A56U U67C G70C, the self-cleavage amounted to 0.29.
With U1A A21G U60G the figure was 0.26.
With U1A A2G A5G U43A U54C the figure was 0.75.
On to U1A C14U U25A U60A U69C, for which the self-cleavage turned out to be 0.21.
The same measure for U1A A5G A15G U41C U60G: 0.82; for U1A A13U A20G A28G G55U U76C: 0.25.
On to U1A A3G A15G U43C A45G A65G U80C, for which the self-cleavage turned out to be 0.2.
With U1A C12U G24C A28U G53U U54C G73C the figure was 0.07.
With U1A A15U U41A U43A U51A U67C U69C the figure was 0.1; with U1A A15G A35U U48C A57U, 0.12.
Turning to U1A A3G C40U U66C, the self-cleavage was 0.13.
With U1A A15U A18G the figure was 0.42.
On to U1A A20U U74C A75U U78C, for which the self-cleavage was 0.44.
On to U1A A3G U26A U51A U80A, for which the self-cleavage is 1.12.
Regarding U1A A15U A20G U67C, the self-cleavage turned out to be 0.76.
Take U1A A18U A21U U31G A45U U67C: the self-cleavage turned out to be 0.13.
The same measure for U1A A3G G53C U72C: 1.51; for U1A A2G C23U A35U: 0.27; for U1A A45U U60A: 0.65.
For the variant U1A A3G C32U, the self-cleavage was determined as 0.37.
For the variant U1A A45G A57C U67C, the self-cleavage amounted to 0.13.
For the variant U1A A21G U25C A28G U74C, the self-cleavage was 0.47.
The same measure for U1A A5C A13G A15G U60A U67C A75G: 0.
For the variant U1A A5G A18G U54C U78A, the self-cleavage is 0.4.
U1A A3U A45G U67C C79G U80C: the self-cleavage is 0.56.
Turning to U1A A57G U66C U67A C68U, the self-cleavage turned out to be 0.3.
For the variant U1A A21G A28C U78A, the self-cleavage was found to be 0.35.
As to U1A A15G U26C C38A A57G U69A, the self-cleavage turned out to be 0.09.
The same measure for U1A C11U U67A U72C: 0.39; for U1A A20G U25C C37U U43C: 0.16; for U1A A21G A64G: 0.36.
With U1A A5G C11A U72C the figure was 0.69; with U1A A5U C38U A45C U60C U72C, 0.58.
On to U1A A18U U31A, for which the self-cleavage amounted to 0.15.
Consider U1A A35G A57G, for which the self-cleavage worked out at 1.29.
With U1A A3G A20U U26C A47U U72C, the self-cleavage was 0.29.
On to U1A A2G U41C U72C, for which the self-cleavage was found to be 1.1.
Regarding U1A A13G A20U A47G U51A U54C, the self-cleavage was determined as 0.2.
As for U1A A2G A15G U26A A45G U54A A75G, the self-cleavage came out at 0.19.
As to U1A A21G U26G, the self-cleavage was 0.35.
Regarding U1A A21U A65G, the self-cleavage was determined as 0.19.
With U1A A28U U49A U51A, the self-cleavage came out at 0.16.
The same measure for U1A A64U U66C U69C U72C: 0.15; for U1A A18G U26C C34U A57G U72C: 0.04; for U1A A5G G52A G73A: 1.09.
Consider U1A A21G U25C A45U U69A, for which the self-cleavage turned out to be 0.07.
As for U1A A21G C38U, the self-cleavage is 0.41.
With U1A A18C A57U, the self-cleavage stood at 0.31.
Consider U1A C12A C14A U31A U69A, for which the self-cleavage turned out to be 0.31.
With U1A A28C U49C A64G the figure was 0.29; with U1A C4U A15G G16A A56U, 0.09.
Take U1A A5G U69A: the self-cleavage turned out to be 0.37.
The same measure for U1A A20G A57G U69A: 0.27.
With U1A A18G U26A A45G, the self-cleavage was determined as 0.25.
The same measure for U1A C11G A13U A21G U66C U76C: 0.38; for U1A A15U A45U U72A: 0.33.
For U1A A3C U48C U54G, the self-cleavage turned out to be 0.67.
For the variant U1A A13U A20U U49A C50G U51C U54A, the self-cleavage was determined as 0.1.
With U1A A20U U26G the figure was 0.34.
In the case of U1A A13C C34U A35G G36U, the self-cleavage came out at 0.08.
In the case of U1A A3U A20G U31C A47G, the self-cleavage worked out at 0.85.
In the case of U1A A3C A13G A15U U51C U54G U60C, the self-cleavage is 0.73.
With U1A A13G U67A the figure was 0.46; with U1A A21G C39U U49C, 0.04.
Take U1A A15G A28G U54C: the self-cleavage is 0.17.
With U1A A13U A64U the figure was 0.28; with U1A A21U A56G U78C, 0.19.
On to U1A A3U A15G A35U U60C U80C, for which the self-cleavage amounted to 0.5.
U1A C11A U25C U60C U80C: the self-cleavage turned out to be 0.23.
With U1A A5U A13G G24A U25C U41C the figure was 0.47; with U1A A21G A56G, 0.51.
The same measure for U1A A35U U78C: 0.49; for U1A A21G U26C G42A G55A C62U: 0.07; for U1A A2G A13U G22A U67C U74C: 0.08.
The same measure for U1A A20C C37U A45G A56G A57G U72A: 0.13.
For U1A A2G U25G U67C U69A, the self-cleavage came to 0.21.
The same measure for U1A A21C G30A U41C A47G U54C U67A: 0.16; for U1A A28G A47G U54C G63C A77G: 0.14; for U1A A15G G55U: 1.03.
The same measure for U1A A2G C38G U43A C59A A77U: 0.46; for U1A A28U G33A A47G U51A A57G C81G: 0.08; for U1A A2G G8C A13G A15G U43G U49A: 0.73.
With U1A A20G U25A U31A C39U the figure was 0.06; with U1A A56G A65G, 0.14.
Regarding U1A A3C A15U A18G U60A, the self-cleavage stood at 0.56.
For U1A A28G U48C A57G A65G, the self-cleavage came to 0.49.
With U1A A3G C11U U25C the figure was 0.38; with U1A A13G U43A U51A U69C A75U, 0.29; with U1A A15G U31A U76G A77U, 0.38.
With U1A A5G A18U U26A A47G A57G U80C the figure was 0.42.
With U1A A15U A20U the figure was 0.41; with U1A C12U C32A U74C, 0.2; with U1A A35U U43C U69C, 0.25.
Consider U1A A28U U54C, for which the self-cleavage was 0.8.
With U1A C4U A13U C34G the figure was 0.31; with U1A A47G U58C, 1.12.
The same measure for U1A A35U C39A U49G: 0.08; for U1A A45C A47G G55U U72C: 0.16; for U1A A3C G22A U31C A56G: 0.08.
The same measure for U1A A5G U51C: 0.59; for U1A A18U U25A A64G: 0.18.
Turning to U1A A5U U60A A64G U74A, the self-cleavage stood at 0.87.
The same measure for U1A A18G A20U A21U U49C U74C: 0.06; for U1A A21G U26C A35U: 0.21; for U1A A15G A20G U74A: 0.7.
With U1A A45G A56U U58A A77U U80C, the self-cleavage was 0.08.
With U1A A13U U49C U58C the figure was 0.32; with U1A A5G U31A U66C U67A, 0.18; with U1A A13U A21G C32U U49A, 0.21.
As to U1A A15G U31C U72C, the self-cleavage stood at 1.07.
In the case of U1A A20G A45G U51C A57G, the self-cleavage came out at 0.23.
The same measure for U1A A28G U58G U72C: 0.25; for U1A A13G U54A G73A: 1.14.
U1A A18G A35G U48A U78A: the self-cleavage came to 0.34.
With U1A A13C U41C the figure was 0.84; with U1A A18G A56U U69A, 0.34.
With U1A A13G A75G the figure was 0.93.
With U1A A20G U26C A28C U60C, the self-cleavage is 0.08.
The same measure for U1A A5G U31C G33A C71A: 0.12.
The same measure for U1A A18G A47G U49C U51A: 0.2.
On to U1A A47G U54C, for which the self-cleavage turned out to be 0.79.
U1A C4A A15C C29U A57U U60C U72C: the self-cleavage was found to be 0.12.
As to U1A A28U G33U, the self-cleavage amounted to 0.15.
On to U1A A5C A13U A15U U26C A65G, for which the self-cleavage was 0.08.
Take U1A A5U G16A U67A: the self-cleavage was found to be 0.28.
For U1A A3C U41G A47U, the self-cleavage was 0.4.
The same measure for U1A A20G C50G U51C: 0; for U1A A2G U25C U67C U80C: 0.07; for U1A A18G A35G A45G: 0.64.
With U1A A28U U54C A75G the figure was 0.6; with U1A A2G U54G, 0.5; with U1A A15U A35G U48C, 1.02.
The same measure for U1A A18U A65G: 0.33.
In the case of U1A A3G G33U U51A G63C A75G, the self-cleavage was found to be 0.14.
As to U1A A5U U25C, the self-cleavage was determined as 0.27.
With U1A A3G U41G U51C C71U U78C the figure was 0.28.

Values taken from the RNAGym collection of RNA variant scans (doi:10.1093/nar/gkz1192).
